{"source": "paper PMC11834968", "about": "(RSC Chemical Biology, 2025)", "proteins": {"B1": {"name": "Human recombinant fibroblast activation protein alpha (enzyme)", "chain": "not shown", "modifications": "glycosylated (sites not given)"}}, "target": "the molecule itself", "assay": "mass photometry"}
{"protein": "B1", "values": [{"measurement": "stoichiometry N", "value": 2}]}
